# In PubChem BioAssay AID1347120 (National Center for Advancing Translational Sciences (NCATS), 2019):
# About 930 (0.24%) of roughly 390,000 compounds were called active. The inconclusive results got no clear call from the source; some entries with a clear call stand among them for comparison. Calls follow the shape of the dose curve; as a rule, active = well fitted activation curve with a large enough effect; inconclusive = small, poorly fitted or top-dose-only effect; inactive = no such curve, though single readings can be large or run the other way. Potencies of inconclusive entries are doubtful fits and often do not repeat.
# Experiment: qHTS for Suppressors of FUS Proteinopathy: Primary screen using FUS-linked yeast assay; also: nearly all actives have a fitted effect of over 55% in size;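 as to growth rescue (activation): plate controls were DMSO vehicle for no effect and reference control for full effect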
# Settings: S. cerevisiae FUS-expressing, OD600, 24 h; Potency: growth rescue; growth rescue (activation): at 76.6 µM (top of the series)
# Procedure, shortened: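 Read-out: OD at 600 nm after 24hr at 30C, reporting rescue of FUS-induced yeast toxicity. Cells at OD 0.005 in galactose (2%) minimal medium; compounds tested in a dilution series; CP55940 titration from 92uM final as control.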
# Potency is read from the fitted curve at half-maximal effect; tags tell the direction and shape of the fitted curve.
SMILES,Potency,growth rescue (activation)
Cc1[nH][nH]c(=O)c1C(c1c(C)[nH][nH]c1=O)c1cn(Cc2ccc(Cl)c(Cl)c2)c2ccccc12,"inconclusive: 25.1 µM [activator, partial curve]",–
CCOC(=O)CCCCCC(=O)Nc1ccc2c(c1)C(=O)N([C@H](C)CO)C[C@H](C)[C@H](CN(C)C(=O)C1CCCCC1)OCCCC[C@@H](C)O2,"inconclusive: 12.6 µM [activator, partial curve]",–
CCOc1ccc(NC(=O)CSc2oc(-c3cccs3)nc2S(=O)(=O)c2ccc(C)cc2)cc1,–,inactive: 1.25%
CCn1nc(C)c2c(-c3ccccc3)cc(=O)n(C(C)C(=O)Nc3cccc(F)c3)c21 (configuration not stated),"inconclusive: 15.8 µM [activator, partial curve, poor fit]",–
Cc1noc(C)c1NC(=O)Nc1ccc2c(c1)C(=O)N([C@@H](C)CO)C[C@@H](C)[C@H](CN(C)C(=O)Nc1cccc3ccccc13)OCCCC[C@H](C)O2,"inconclusive: 25.1 µM [activator, single point]",–
O=C(COc1ccc(Cl)cc1)NCc1nnc2c3ccccc3c(-c3ccccc3)nn12,"inconclusive: 44.7 µM [activator, single point]",–
CCc1nc2c(OCCC3CCCCC3)cccn2c1N(C)C(=O)c1cccs1,"inconclusive: 50.1 µM [activator, single point]",–
O=C1N[C@H](Cc2c[nH]c3ccccc23)COC(=O)[C@H](Cc2ccc(F)cc2)C/C=C\C[C@H]1CC(=O)N(CCO)Cc1ccccc1,"inconclusive: 28.2 µM [activator, single point]",–
Cc1cn2c(=O)cc(COc3cccc(NC(=O)c4ccc(C(C)(C)C)cc4)c3)nc2s1,–,inactive: 23%
NC(=O)C1CCCN1S(=O)(=O)c1ccc2ccccc2c1 (configuration not stated),–,inactive: -13.8%
CCOc1ccc(NC(=O)c2c(C)nn(-c3ccc(F)cc3)c2-n2cccc2)cc1,–,inactive: -14%
Nc1cc2c(cc1C(=O)c1ccccc1F)OCCO2,–,inactive: -5.9%
O=C(c1ccc([N+](=O)[O-])cc1)N1CCN=C1SCc1ccccc1,–,inactive: 6.4%
Cc1nc2nc(SCC(=O)N(C)Cc3ccccc3)nn2c(C)c1Cc1ccccc1Cl,"inconclusive: 28.2 µM [activator, single point]",–
O=C(N[C@@H]1C/C=C\C[C@H](CC(=O)N(CCO)Cc2ccccc2)C(=O)N[C@@H](Cc2ccccc2)COC1=O)OCC1c2ccccc2-c2ccccc21,active: 31.6 µM,–
COC(=O)c1sc2cccc(F)c2c1S(=O)(=O)N1CCN(c2cccc(OC)c2)CC1,"inconclusive: 11.2 µM [activator, partial curve, poor fit]",–
CN1c2ccsc2C(O)=C(C(=O)Nc2ccccc2)S1(=O)=O,"inconclusive: 15.8 µM [activator, partial curve, poor fit]",–
COc1ccc(O)c(C=Nc2cc(C)on2)c1,"inconclusive: 25.1 µM [activator, partial curve, poor fit]",–
CC1CCCN(S(=O)(=O)c2ccc(NC(=O)Cc3ccc(S(=O)(=O)N4CCOCC4)s3)cc2)C1 (configuration not stated),"inconclusive: 39.8 µM [activator, single point]",–

SMILES,Potency,growth rescue (activation)
O=C(Nc1ccccc1)N1CCCC(c2nc(-c3ccc(F)cc3)no2)C1 (configuration not stated),–,inactive: 16.9%
COc1cccc(Cn2cnc3c(NS(=O)(=O)c4ccc(Cl)cc4Cl)c(C)c(C)cc32)c1,"inconclusive: 39.8 µM [activator, partial curve, poor fit]",–
O=C(COc1ccccc1)Nc1ccccc1C(=O)NCc1ccco1,–,inactive: 40.6%
COc1ccccc1N1C(=O)c2ccc(C(=O)Nc3cccc(C(C)=O)c3)cc2C1=O,"inconclusive: 15.8 µM [activator, single point]",–
CCN(Cc1ccccc1)C(=O)CN1C(=O)NC(CC)(c2ccc(F)cc2)C1=O (configuration not stated),–,inactive: 8.2%
COc1ccc(-c2noc(C3CCCN(C(=O)N[C@@H]4C[C@H]4c4ccccc4)C3)n2)cc1 (some centres not stated),"inconclusive: 25.1 µM [activator, single point]",–
O=C(CSc1oc(-c2ccccc2)nc1S(=O)(=O)c1ccc(Br)cc1)c1ccccc1,"inconclusive: 50.1 µM [activator, single point]",–
CC(=O)Nc1cc(-c2cccc(C)c2)cn2c(-c3ccc(S(C)(=O)=O)cc3)cnc12,"inconclusive: 39.8 µM [activator, single point]",–
CCOC(=O)c1cc2c(=O)n3ccccc3nc2n(Cc2ccco2)c1=NC(=O)c1ccc(Br)cc1,"inconclusive: 20 µM [activator, partial curve, poor fit]",–
O=C(COC(=O)CN1C(=O)C2CCCCC2C1=O)Nc1cc(F)ccc1F (configuration not stated),"inconclusive: 31.6 µM [activator, partial curve, poor fit]",–
CCN1CCN(c2nc3c(C)cccn3c(=O)c2/C=C(\C#N)S(=O)(=O)c2ccccc2)CC1,"inconclusive: 50.1 µM [activator, single point]",–
C[C@H]1CN([C@@H](C)CO)C(=O)c2cccc(NC(=O)Nc3ccc(C(F)(F)F)cc3)c2O[C@@H]1CN(C)S(=O)(=O)c1ccc(Cl)cc1,"inconclusive: 31.6 µM [activator, single point]",–
O=C1N[C@@H](Cc2ccccc2)COC(=O)[C@H](Cc2ccc(F)cc2)C/C=C\C[C@H]1CC(=O)N(CCO)Cc1ccccc1,"inconclusive: 20 µM [activator, partial curve, poor fit]",–
CCOP(=O)(OCC)c1nc(/C=C/c2ccccc2)oc1NCc1ccccc1,"inconclusive: 7.94 µM [activator, full curve, poor fit]",–
COc1ccc(C#Cc2c(-c3ccccc3)n(C)c3ccccc23)cc1,"inconclusive: 28.2 µM [activator, single point]",–
CCOc1ccc(C(C(=O)NCC2CCCO2)N(Cc2cccs2)C(=O)c2snc(C(N)=O)c2N)cc1 (configuration not stated),–,inactive: -1%
CC(=O)c1cccc(-c2cnc3c(NC=O)cc(-c4ccc(F)cc4)cn23)c1,"inconclusive: 50.1 µM [activator, single point]",–
COc1ccc(NC(=O)c2nc(C)c(C3(C)CC(c4ccccc4)=NO3)s2)cc1 (configuration not stated),"inconclusive: 25.1 µM [activator, partial curve, poor fit]",–
COC(=O)c1ccc(NC(=O)Nc2ccccc2C)cc1,"inconclusive: 14.1 µM [activator, partial curve, poor fit]",–

SMILES,Potency,growth rescue (activation)
CC(C)=CCC/C(C)=C/CNC(=O)C[C@H]1C[C@H](C(=O)N2CCOCC2)[C@@]2(CCC3CCCC3)c3[nH]c4cc(-c5ccco5)ccc4c3CCN2C1=O,"inconclusive: 50.1 µM [activator, single point]",–
CC(C)Oc1ccc(CNC(=O)CN2C(=O)CCn3nc(-c4cn(C)c5ccccc45)cc32)cc1,"inconclusive: 31.6 µM [activator, single point]",–
CCc1ccc2[nH]c(=O)c(CN(Cc3ccco3)C(=S)NCC3CCCO3)cc2c1 (configuration not stated),"inconclusive: 50.1 µM [activator, single point]",–
COc1cc(OC)c(NC(=O)CCc2ccccc2)cc1Cl,"inconclusive: 50.1 µM [activator, single point]",–
O=S(=O)(c1cccc2cccnc12)N1CCC(c2cn3ccccc3n2)CC1,–,inactive: 32%
CN(Cc1ccccc1)C(=O)c1ccc(Nc2nc(C(N)Cc3ccc(C(F)(F)F)cc3)cs2)nc1 (configuration not stated),"inconclusive: 50.1 µM [activator, single point]",–
C[C@]12c3[nH]c4ccccc4c3CCN1C(=O)C(CC(=O)NCc1cccc(C(F)(F)F)c1)C[C@@H]2C(=O)N1CCCCC1 (some centres not stated),"inconclusive: 14.1 µM [activator, partial curve, poor fit]",–
O=C(NC1CCCCC1)C(c1ccncc1)n1c(=O)c(-c2cc3ccccc3[nH]2)nc2ccccc21 (configuration not stated),"inconclusive: 14.1 µM [activator, partial curve]",–
CCCCCCCCN1C(=O)[C@@H](CC(=O)NCc2ccc(C)o2)C[C@@]2(C(=O)OC)C1=C[C@H](C(C)C)O[C@@H]2C1CC1,"inconclusive: 11.2 µM [activator, partial curve]",–
CCOC(=O)c1ccc(N2C(=O)c3n[nH]c(-c4ccco4)c3C2c2ccc(OC)cc2OC)cc1 (configuration not stated),"inconclusive: 31.6 µM [activator, single point]",–
COc1cccc(CNC(=O)c2ccc(-c3nc(CS(=O)c4ccccc4)c(C)o3)cc2)c1 (configuration not stated),"inconclusive: 39.8 µM [activator, partial curve, poor fit]",–
O=C(Nc1nccs1)c1cc(-c2ccncc2)nc2ccccc12,"inconclusive: 35.5 µM [activator, partial curve, poor fit]",–
CSc1cccc(NC(=S)N(CCCN2CCCC2)Cc2cccn2Cc2ccc(Cl)cc2)c1,"inconclusive: 28.2 µM [activator, partial curve, poor fit]",–
Cc1ccc(Sc2ccc(N3CCCC(C(=O)Nc4ccc(Br)cc4)C3)nn2)cc1 (configuration not stated),–,inactive: -16.4%
CN(c1ccccc1)S(=O)(=O)c1cccc(NC(=O)C2=NN(c3ccccc3)C(=O)CC2)c1,–,inactive: -11.1%
Cc1c(C)n(Cc2ccccc2)c2ccc(C(=O)N3CCN(c4ccccc4F)CC3)cc12,"inconclusive: 22.4 µM [activator, partial curve, poor fit]",–
CC(=O)Nc1sc2c(c1C(=O)N1CCOCC1)CCCCC2,–,inactive: 20%
O=C(C1CCCN(S(=O)(=O)Cc2ccccc2)C1)N1CCC(Cc2ccccc2)CC1 (configuration not stated),"inconclusive: 25.1 µM [activator, single point]",–
O=c1c2cc([N+](=O)[O-])cc([N+](=O)[O-])c2[nH]n1-c1ccccc1,"inconclusive: 50.1 µM [activator, single point]",–
